Data as given in the supplement of paper PMC10338343.
± gives the standard deviation. In all, about 6,600 sequences were measured (“pre-steady-state target cleavage rate”: median about 0.07, highest 2% from about 0.72 on). Only a part is listed here, and it is no random draw.

test system: MIWI (PIWIL1) piRISC loaded with Kctd7 piRNA (30 nt); assay: pre-steady-state target cleavage rate (min^-1); MIWI and MILI are mouse PIWI proteins and EfPiwi is from a freshwater sponge; tags in brackets are library labels; higher = faster piRNA-guided slicing of the target; conditions: guide: Kctd7 piRNA 5'p-UGUUAAUCUCUCAGAGAAGGUGACAGUGAU; auxiliary factor: 500 nM mouse GTSF1
Procedure, shortened: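 In Cleave-'n-Seq, a transcribed, DNA-blocked target RNA library (0.1 nM) was combined with 1 nM active affinity-purified piRISC bearing one synthetic guide, with or without 500 nM GTSF1 partner protein. Reactions ran in HEPES–potassium acetate buffer at 33 °C for 0–8 or 0–960 min. Uncleaved targets were sequenced and normalised to depth and to weakly complementary targets, three trials were pooled, and k3 was capped at 0.0001 min^-1. The pre-steady-state cleavage rate was obtained by fitting a burst-and-steady-state model.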

Question: For UAGUGUGUCCACCUUCUCUGAGAGAUUAACA, which “pre-steady-state target cleavage rate” value is on record?
Answer: The value was 0.408 ± 0.041.

Question: UAGACUGUCACCUUCUCUGAGAGCUUAACA was tested. Which “pre-steady-state target cleavage rate” value did it give?
Answer: Its value is 0.226 ± 0.029.

Question: How did the “pre-steady-state target cleavage rate” value turn out when UAGUGAGUCUCCUUCUCUGAGUGAUUAACA was run?
Answer: Its value is 0.0201 ± 0.0023.

Question: With UAGACUGUCACCUUCUCUGAGAAAUUAACA as the sequence, how does the “pre-steady-state target cleavage rate” value read?
Answer: Its value is 0.166 ± 0.016.

Question: With UACACUGUCACCUUGUCUGAGAGAUUAUCA as the sequence, how does the “pre-steady-state target cleavage rate” value read?
Answer: Its value is 0.193 ± 0.039.

Question: With UACACUGUGAGCUUCUCUGAGAGAUUAACA as the sequence, how does the “pre-steady-state target cleavage rate” value read?
Answer: The value was 0.45 ± 0.025.

Question: How did the “pre-steady-state target cleavage rate” value turn out when AUCACUGUCACCUUCUCUCAGAGAUUAACA was run?
Answer: The value was 0.161 ± 0.018.

Question: UACACUGUCACCUAGUCUGAGAGAUUAUGA was tested. Which “pre-steady-state target cleavage rate” value did it give?
Answer: Its value is 0.0278 ± 0.012.

Question: For AUCUGUGUCACCUUCUCUGAGAGAUUAAGA, which “pre-steady-state target cleavage rate” value is on record?
Answer: Its value is 0.0669 ± 0.012.

Question: UUCACUCUCACCUUCUCUGAGACAUUAACA was tested. Which “pre-steady-state target cleavage rate” value did it give?
Answer: The value was 0.332 ± 0.026.

Question: With UAGUGACUCACCUUCUCUGAGUGUUUAACA as the sequence, how does the “pre-steady-state target cleavage rate” value read?
Answer: Its value is 0.0151 ± 0.0038.

Question: Which “pre-steady-state target cleavage rate” value does the source give for UACUGAGUCACCUUCUCUGAGAGAUUAACA here?
Answer: The value was 0.597 ± 0.045.

Question: For UAGUGACACACCUUCUCUGAGGGAUUAACA, which “pre-steady-state target cleavage rate” value is on record?
Answer: Its value is 0.534 ± 0.043.

Question: For UAGUGACAGUGCUUCUCCGAGAGAUUAACA, which “pre-steady-state target cleavage rate” value is on record?
Answer: The value was 0.0118 ± 0.0036.

Question: With UAGUCUGUCACCUACUCUGAGAGAUUAACA as the sequence, how does the “pre-steady-state target cleavage rate” value read?
Answer: The value was 0.551 ± 0.034.

Question: UACACUGUCUCGUUCUCUGAGAGAUUAACA was tested. Which “pre-steady-state target cleavage rate” value did it give?
Answer: Its value is 0.597 ± 0.03.

Question: How did the “pre-steady-state target cleavage rate” value turn out when UACACUGUGACCUUCUCUGACAGAUUAACA was run?
Answer: The value was 0.378 ± 0.03.

Question: Which “pre-steady-state target cleavage rate” value does the source give for UAGUGAGUCACCAUCUCUGUGAGAUUAACA here?
Answer: The value was 0.133 ± 0.0078.

Question: UAGUGACUCACCUUCACUGAGAGAUUUUGA was tested. Which “pre-steady-state target cleavage rate” value did it give?
Answer: Its value is 0.00657 ± 0.0031.

Question: Which “pre-steady-state target cleavage rate” value does the source give for UAGUGACAGUCCUUCUUUGAGAGAUUAACA here?
Answer: Its value is 0.00836 ± 0.0033.

Question: Which “pre-steady-state target cleavage rate” value does the source give for UAGACUGUCACCAUCUGUGAGAGAUUAACA here?
Answer: The value was 0.359 ± 0.023.

Question: UAGUGACUGACCUUCUCUGACAGAUUAACA was tested. Which “pre-steady-state target cleavage rate” value did it give?
Answer: Its value is 0.0548 ± 0.0096.

Question: How did the “pre-steady-state target cleavage rate” value turn out when UAGUCUGUCAGCUUCUCUGAGAGUUUAACA was run?
Answer: Its value is 0.127 ± 0.016.

Question: How did the “pre-steady-state target cleavage rate” value turn out when UUCAGACUCACCUUCUCUGAGAGAUUAAGA was run?
Answer: Its value is 0.127 ± 0.02.

Question: Which “pre-steady-state target cleavage rate” value does the source give for UAGUGAGACACCUUCUCUGAGAGUUUAACA here?
Answer: The value was 0.25 ± 0.046.

Question: UACACUGUCACCUUCUCUCAGACAUUAACA was tested. Which “pre-steady-state target cleavage rate” value did it give?
Answer: The value was 0.0659 ± 0.0079.

Question: With UAGAGUGUGACCUUCUCUGAGAGAUUAACA as the sequence, how does the “pre-steady-state target cleavage rate” value read?
Answer: The value was 0.625 ± 0.027.

Question: UAGUGUGUCACCUUCUCUGAGACAUUAAGA was tested. Which “pre-steady-state target cleavage rate” value did it give?
Answer: The value was 0.0149 ± 0.0067.

Question: With UAGUGUCUCACCUUCUCUGAGACAUUAACA as the sequence, how does the “pre-steady-state target cleavage rate” value read?
Answer: The value was 0.0137 ± 0.0061.

Question: UACACUGUCACCUUCUCUGAGAGAUUGAACA was tested. Which “pre-steady-state target cleavage rate” value did it give?
Answer: The value was 0.268 ± 0.034.

Question: Which “pre-steady-state target cleavage rate” value does the source give for UAGACUGUCAGCUUCACUGAGAGAUUAACA here?
Answer: Its value is 0.464 ± 0.022.

Question: With UAGACAGUCACCUUCUCUGAGAGAUAUUGA as the sequence, how does the “pre-steady-state target cleavage rate” value read?
Answer: Its value is 0.0688 ± 0.018.

Question: For UAGUGACUCACUUUCUCUGAGAGAUUAACA, which “pre-steady-state target cleavage rate” value is on record?
Answer: The value was 0.635 ± 0.031.

Question: With UAGUGUGUCACCUUCUCUGAGAGACUUAACA as the sequence, how does the “pre-steady-state target cleavage rate” value read?
Answer: Its value is 0.181 ± 0.023.

Question: Which “pre-steady-state target cleavage rate” value does the source give for AUCACUGUCACCUUCUCUGAAGAUUAACA here?
Answer: The value was 0.0504 ± 0.012.

Question: UAGUGACAGACCUUACUCUGAGAGAUUAACA was tested. Which “pre-steady-state target cleavage rate” value did it give?
Answer: Its value is 0.0198 ± 0.0041.

Question: How did the “pre-steady-state target cleavage rate” value turn out when UUCUCUGUCACGUUCUCUGAGAGAUUAACA was run?
Answer: Its value is 0.564 ± 0.026.

Question: AUCUGUGUCACCUUCUCUGAGAGAUUUUGA was tested. Which “pre-steady-state target cleavage rate” value did it give?
Answer: Its value is 0.0788 ± 0.011.

Question: UAGUGACAGACCUUUCUCUGAGAGAUUAACA was tested. Which “pre-steady-state target cleavage rate” value did it give?
Answer: Its value is 0.0379 ± 0.0079.

Question: With UAGUGACACAGCUUCUCUGAGAGUUUAACA as the sequence, how does the “pre-steady-state target cleavage rate” value read?
Answer: Its value is 0.0412 ± 0.0084.

Question: With UAGUGACACACCAUCUCUGAGACAUUAACA as the sequence, how does the “pre-steady-state target cleavage rate” value read?
Answer: The value was 0.0487 ± 0.0088.

Question: With UAGUGACAGACCUUCUGUGAGAGAUAAACA as the sequence, how does the “pre-steady-state target cleavage rate” value read?
Answer: The value was 0.0234 ± 0.0052.

Question: How did the “pre-steady-state target cleavage rate” value turn out when UAGUCUGUCUCCUUCUCUGAGAGAUAAACA was run?
Answer: The value was 0.346 ± 0.069.

Question: For UACACUGUCACCUUCUCUGAGACUUUAACA, which “pre-steady-state target cleavage rate” value is on record?
Answer: Its value is 0.0647 ± 0.017.

Question: UACAGACUCACCUUCUCUGAGAGAUUAAGA was tested. Which “pre-steady-state target cleavage rate” value did it give?
Answer: The value was 0.165 ± 0.025.

Question: How did the “pre-steady-state target cleavage rate” value turn out when UAGUGUGUCACCUUCUCUGAGAGAUUAAUA was run?
Answer: Its value is 0.413 ± 0.054.

Question: Which “pre-steady-state target cleavage rate” value does the source give for UAGUGACAGUGCUUCUCUGAGAGAUAAAGA here?
Answer: Its value is under 0.0001.

Question: For UACACUGUCUCCUUCUCUGAGAGAAUAACA, which “pre-steady-state target cleavage rate” value is on record?
Answer: The value was 0.236 ± 0.035.

Question: For UACACUGUCACCUUCUCUGAGAGAUUACA, which “pre-steady-state target cleavage rate” value is on record?
Answer: Its value is 0.339 ± 0.063.

Question: With AUCACUGUCAGGAUCUCUGAGAGAUUAAGA as the sequence, how does the “pre-steady-state target cleavage rate” value read?
Answer: Its value is 0.013 ± 0.0039.

Question: Which “pre-steady-state target cleavage rate” value does the source give for “UAGUGACAGUGGAUCUCUGUCUCUAAUUGA [g12:g17:cont:t1A]” here?
Answer: The value was under 0.0001.

Question: For UAGUGUGUCACGUUCUCUGAGAGAUAUUGA, which “pre-steady-state target cleavage rate” value is on record?
Answer: Its value is 0.00554 ± 0.0043.

Question: With UAGUGACUCACCUUCUCUGACAGAAUAACA as the sequence, how does the “pre-steady-state target cleavage rate” value read?
Answer: Its value is 0.0197 ± 0.0048.

Question: How did the “pre-steady-state target cleavage rate” value turn out when UAGUGACUCACGUUGUCUGAGAGAUUAACA was run?
Answer: The value was 0.0985 ± 0.012.

Question: For UAGUGACAGUGCUUCCUCUGAGAGAUUAACA, which “pre-steady-state target cleavage rate” value is on record?
Answer: Its value is 0.0616 ± 0.0068.

Question: How did the “pre-steady-state target cleavage rate” value turn out when UAGUGACACAGCCUUCUCUGAGAGAUUAACA was run?
Answer: Its value is 0.174 ± 0.016.

Question: For UAGUCUGUCUCCUUCUCAGAGAGAUUAACA, which “pre-steady-state target cleavage rate” value is on record?
Answer: The value was 0.311 ± 0.021.

Question: UAGUGUGUCAGCUUCUCUGUGAGAUUAACA was tested. Which “pre-steady-state target cleavage rate” value did it give?
Answer: The value was 0.193 ± 0.011.

Question: How did the “pre-steady-state target cleavage rate” value turn out when UACAGUGUCACCUUCUCUGAGAGUUUAACA was run?
Answer: The value was 0.613 ± 0.094.

Question: For UAGUGAGUGACCUUCUCUGAGUGAUUAACA, which “pre-steady-state target cleavage rate” value is on record?
Answer: Its value is 0.0233 ± 0.0097.

Question: With UAGUCUGACACCUACUCUGAGAGAUUAACA as the sequence, how does the “pre-steady-state target cleavage rate” value read?
Answer: Its value is 0.381 ± 0.03.

Question: How did the “pre-steady-state target cleavage rate” value turn out when UUCUCUGUCACCUUCUCUCAGAGAUUAACA was run?
Answer: Its value is 0.105 ± 0.0091.

Question: For UUCAGUGUCACCAUCUCUGAGAGAUUAACA, which “pre-steady-state target cleavage rate” value is on record?
Answer: Its value is 0.585 ± 0.037.

Question: UAGUGUGUCAGCUUCUCUGAGAGAUUAACA was tested. Which “pre-steady-state target cleavage rate” value did it give?
Answer: The value was 0.561 ± 0.032.

Question: Which “pre-steady-state target cleavage rate” value does the source give for UAGUGACACACCUUCACUGAGAGAUUAAGA here?
Answer: Its value is 0.0185 ± 0.01.

Question: How did the “pre-steady-state target cleavage rate” value turn out when UAGACUGUCACCUUCUUUGAGAGAUUAACA was run?
Answer: Its value is 0.58 ± 0.034.

Question: For UAGUCUGUCUGGUUCUCUGAGAGAUUAACA, which “pre-steady-state target cleavage rate” value is on record?
Answer: Its value is 0.0485 ± 0.0058.

Question: How did the “pre-steady-state target cleavage rate” value turn out when AACACUGUCACCUUCUCUGAGAGAUUAAGA was run?
Answer: The value was 0.189 ± 0.026.

Question: UACACUCUCACCUUCUCUCAGAGAUUAACA was tested. Which “pre-steady-state target cleavage rate” value did it give?
Answer: Its value is 0.116 ± 0.012.

Question: For UAGUGACAGUCCUUCUCUGAGAGAUAAACA, which “pre-steady-state target cleavage rate” value is on record?
Answer: The value was 0.0209 ± 0.0048.

Question: Which “pre-steady-state target cleavage rate” value does the source give for UACACUGUCACCUUCUCUGAGAGAAAUACA here?
Answer: The value was 0.0416 ± 0.013.
